Results taken from the supplement of paper PMC8728848.
The other results are listed elsewhere or left out.

Experiments:
Assay in all cases: glycan array binding signal (z-score within array); higher = stronger binding
Conditions in all cases: glycan notation: IUPAC condensed, linker removed
[1] = target: Gal(b1-4)GlcNAc(b1-3)Gal(b1-3)GlcNAc
How it was run: (§1)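 Columns mapping to the same glycan were averaged after glycan names were converted to IUPAC-condensed notation. The data come from 3228 arrays in the Consortium for Functional Glycomics database, limited to those with an available protein sequence. Binding is reported as a within-array Z-score averaged across arrays of one protein sequence and across linkers.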

[2] = target: Gal(b1-4)GlcNAc(b1-3)Gal(b1-4)Glc
How it was run: as §1

[3] = target: Gal(b1-4)GlcNAc(b1-3)Gal(b1-4)GlcNAc
How it was run: as §1

[4] = target: Gal(b1-4)GlcNAc(b1-3)Gal(b1-4)GlcNAc(b1-2)Man(a1-3)[Gal(b1-4)GlcNAc(b1-3)Gal(b1-4)GlcNAc(b1-2)Man(a1-6)]Man(b1-4)GlcNAc(b1-4)GlcNAc
How it was run: as §1

[5] = target: Gal(b1-4)GlcNAc(b1-3)Gal(b1-4)GlcNAc(b1-2)Man(a1-3)[Gal(b1-4)GlcNAc(b1-3)Gal(b1-4)GlcNAc(b1-2)Man(a1-6)]Man(b1-4)GlcNAc(b1-4)[Fuc(a1-6)]GlcNAc
How it was run: as §1

[6] = target: Gal(b1-4)GlcNAc(b1-3)Gal(b1-4)GlcNAc(b1-2)[Gal(b1-4)GlcNAc(b1-3)Gal(b1-4)GlcNAc(b1-6)]Man(a1-6)[Gal(b1-4)GlcNAc(b1-3)Gal(b1-4)GlcNAc(b1-2)Man(a1-3)]Man(b1-4)GlcNAc(b1-4)GlcNAc
How it was run: as §1

[7] = target: Gal(b1-4)GlcNAc(b1-3)Gal(b1-4)GlcNAc(b1-2)[Gal(b1-4)GlcNAc(b1-3)Gal(b1-4)GlcNAc(b1-6)]Man(a1-6)[Gal(b1-4)GlcNAc(b1-3)Gal(b1-4)GlcNAc(b1-2)Man(a1-3)]Man(b1-4)GlcNAc(b1-4)[Fuc(a1-6)]GlcNAc
How it was run: as §1

[8] = target: Gal(b1-4)GlcNAc(b1-3)Gal(b1-4)GlcNAc(b1-3)Gal(b1-4)GlcNAc
How it was run: as §1

[9] = target: Gal(b1-4)GlcNAc(b1-3)Gal(b1-4)GlcNAc(b1-3)Gal(b1-4)GlcNAc(b1-2)Man(a1-3)[Gal(b1-4)GlcNAc(b1-3)Gal(b1-4)GlcNAc(b1-3)Gal(b1-4)GlcNAc(b1-2)Man(a1-6)]Man(b1-4)GlcNAc(b1-4)GlcNAc
How it was run: as §1

[10] = target: Gal(b1-4)GlcNAc(b1-3)Gal(b1-4)GlcNAc(b1-3)Gal(b1-4)GlcNAc(b1-2)Man(a1-3)[Gal(b1-4)GlcNAc(b1-3)Gal(b1-4)GlcNAc(b1-3)Gal(b1-4)GlcNAc(b1-2)Man(a1-6)]Man(b1-4)GlcNAc(b1-4)[Fuc(a1-6)]GlcNAc
How it was run: as §1

[11] = target: Gal(b1-4)GlcNAc(b1-3)Gal(b1-4)GlcNAc(b1-3)Gal(b1-4)GlcNAc(b1-2)[Gal(b1-4)GlcNAc(b1-3)Gal(b1-4)GlcNAc(b1-3)Gal(b1-4)GlcNAc(b1-6)]Man(a1-6)[Gal(b1-4)GlcNAc(b1-3)Gal(b1-4)GlcNAc(b1-3)Gal(b1-4)GlcNAc(b1-2)Man(a1-3)]Man(b1-4)GlcNAc(b1-4)[Fuc(a1-6)]GlcNAc
How it was run: as §1

[12] = target: Gal(b1-4)GlcNAc(b1-3)Gal(b1-4)GlcNAc(b1-3)Gal(b1-4)GlcNAc(b1-3)Gal(b1-4)GlcNAc(b1-2)Man(a1-3)[Gal(b1-4)GlcNAc(b1-3)Gal(b1-4)GlcNAc(b1-3)Gal(b1-4)GlcNAc(b1-3)Gal(b1-4)GlcNAc(b1-2)Man(a1-6)]Man(b1-4)GlcNAc(b1-4)GlcNAc
How it was run: as §1

[13] = target: Gal(b1-4)GlcNAc(b1-3)Gal(b1-4)GlcNAc(b1-3)Gal(b1-4)GlcNAc(b1-3)Gal(b1-4)GlcNAc(b1-2)Man(a1-3)[Gal(b1-4)GlcNAc(b1-3)Gal(b1-4)GlcNAc(b1-3)Gal(b1-4)GlcNAc(b1-3)Gal(b1-4)GlcNAc(b1-2)Man(a1-6)]Man(b1-4)GlcNAc(b1-4)[Fuc(a1-6)]GlcNAc
How it was run: as §1

[14] = target: Gal(b1-4)GlcNAc(b1-3)Gal(b1-4)GlcNAc(b1-3)Gal(b1-4)GlcNAc(b1-3)Gal(b1-4)GlcNAc(b1-2)[Gal(b1-4)GlcNAc(b1-3)Gal(b1-4)GlcNAc(b1-3)Gal(b1-4)GlcNAc(b1-3)Gal(b1-4)GlcNAc(b1-6)]Man(a1-6)[Gal(b1-4)GlcNAc(b1-3)Gal(b1-4)GlcNAc(b1-3)Gal(b1-4)GlcNAc(b1-3)Gal(b1-4)GlcNAc(b1-2)Man(a1-3)]Man(b1-4)GlcNAc(b1-4)[Fuc(a1-6)]GlcNAc
How it was run: as §1

[15] = target: Gal(b1-4)GlcNAc(b1-3)Gal(b1-4)GlcNAc(b1-3)Gal(b1-4)GlcNAc(b1-3)Gal(b1-4)GlcNAc(b1-3)Gal(b1-4)GlcNAc(b1-2)Man(a1-3)[Gal(b1-4)GlcNAc(b1-3)Gal(b1-4)GlcNAc(b1-3)Gal(b1-4)GlcNAc(b1-3)Gal(b1-4)GlcNAc(b1-3)Gal(b1-4)GlcNAc(b1-2)Man(a1-6)]Man(b1-4)GlcNAc(b1-4)GlcNAc
How it was run: as §1

[16] = target: Gal(b1-4)GlcNAc(b1-3)Gal(b1-4)GlcNAc(b1-3)Gal(b1-4)GlcNAc(b1-3)Gal(b1-4)GlcNAc(b1-3)Gal(b1-4)GlcNAc(b1-2)Man(a1-3)[Gal(b1-4)GlcNAc(b1-3)Gal(b1-4)GlcNAc(b1-3)Gal(b1-4)GlcNAc(b1-3)Gal(b1-4)GlcNAc(b1-3)Gal(b1-4)GlcNAc(b1-2)Man(a1-6)]Man(b1-4)GlcNAc(b1-4)[Fuc(a1-6)]GlcNAc
How it was run: as §1

[17] = target: Gal(b1-4)GlcNAc(b1-3)Gal(b1-4)GlcNAc(b1-3)Gal(b1-4)GlcNAc(b1-3)Gal(b1-4)GlcNAc(b1-3)Gal(b1-4)GlcNAc(b1-2)[Gal(b1-4)GlcNAc(b1-3)Gal(b1-4)GlcNAc(b1-3)Gal(b1-4)GlcNAc(b1-3)Gal(b1-4)GlcNAc(b1-3)Gal(b1-4)GlcNAc(b1-6)]Man(a1-6)[Gal(b1-4)GlcNAc(b1-3)Gal(b1-4)GlcNAc(b1-3)Gal(b1-4)GlcNAc(b1-3)Gal(b1-4)GlcNAc(b1-3)Gal(b1-4)GlcNAc(b1-2)Man(a1-3)]Man(b1-4)GlcNAc(b1-4)[Fuc(a1-6)]GlcNAc
How it was run: as §1

[18] = target: Gal(b1-4)GlcNAc(b1-3)Gal(b1-4)GlcNAc(b1-3)Gal(b1-4)GlcNAc(b1-3)Gal(b1-4)GlcNAc(b1-3)Gal(b1-4)GlcNAc(b1-3)Gal(b1-4)GlcNAc(b1-2)Man(a1-3)[Gal(b1-4)GlcNAc(b1-3)Gal(b1-4)GlcNAc(b1-3)Gal(b1-4)GlcNAc(b1-3)Gal(b1-4)GlcNAc(b1-3)Gal(b1-4)GlcNAc(b1-3)Gal(b1-4)GlcNAc(b1-2)Man(a1-6)]Man(b1-4)GlcNAc(b1-4)GlcNAc
How it was run: as §1

[19] = target: Gal(b1-4)GlcNAc(b1-3)Gal(b1-4)GlcNAc(b1-3)GalNAc
How it was run: as §1

B1: SP16664B-bot-474-25-474 (Bacteroides ovatus) (protein)
chain: CEEDIEIGNKIDESSYLASTQLSGLLLDENTNKNSSVIELRNNEYSTNVVFRLSKLPQKGVDVQIAVEESYAAIYNTIHETDFEVFPAANVKIANNGTFVLAPDDKVTPSVKVTLTAFDGMEEDKTYIVPLTVTSSTEGVTFTETSKHMVLLVQDYRNKPNTNKGEDAVQTVLYFEVNDTNPLNALEFLTESGKYFFDHIVLFAANINWDPEKQRVYLANNENVQFLLDNNDKYLQPLRKAGMKIIISILGNHDEAGVAQLSDMGAREFARELAAYCRAYNLDGVAFDDEYSNSPDLSNPWLASPSAYAGSRLMYECKAVMPEKIVSLYNLGNMYSSSLQVIDGIEPGQYCDYAVADYGGAAGPGTGMTLKQCAGMSIELRRGSGNSSESTARSRKEAGYGYYMFFALDPSLYGSQVYRCQSVCKGLYDETLVYPSYYYKKNSTEREAIN
Which results are given for B1?
glycan array binding signal (z-score) [1]: -0.433; glycan array binding signal (z-score) [2]: -0.36; glycan array binding signal (z-score) [3]: 0.066; glycan array binding signal (z-score) [4]: 1.81; glycan array binding signal (z-score) [5]: 0.966; glycan array binding signal (z-score) [6]: 1.08; glycan array binding signal (z-score) [7]: 0.772; glycan array binding signal (z-score) [8]: -0.33; glycan array binding signal (z-score) [9]: 1.88; glycan array binding signal (z-score) [10]: 0.028; glycan array binding signal (z-score) [11]: 2.21; glycan array binding signal (z-score) [12]: 0.189; glycan array binding signal (z-score) [13]: 1.43; glycan array binding signal (z-score) [14]: 0.05; glycan array binding signal (z-score) [15]: 1.01; glycan array binding signal (z-score) [16]: 0.242; glycan array binding signal (z-score) [17]: 0.682; glycan array binding signal (z-score) [18]: 0.32; glycan array binding signal (z-score) [19]: 1.54
